Test [1] deals with T1, human FcRn (Biorbyt, cat. no. orb84388) (human, UniProt P55899 24-297; P61769 21-119, limits assumed).
T1 construct: Bought protein; Biotinylated in AlphaLISA and ELISA; also called biotinylated human FcRn
The test can be described thus: AlphaLISA blocking of IgG (Roactemra) binding to biotinylated human FcRn, pH 6.0. The protocol:
Stepwise serial dilutions 1:3 of His-tagged Z variants to final concentrations of 250 nM to 38 pM were made in a 384-well plate (Perkin Elmer, cat. no. G6005350) and incubated for 45 min with 10 nM biotinylated human FcRn (Biorbyt, cat. no. orb84388; biotinylated essentially as described in Example 2) in AlphaLISA buffer (Perkin Elmer, cat. no. AL000F) adjusted to pH 6.0 using HCl. IgG-coated Acceptor beads were added to a final concentration of 10 μM and incubated for 45 min. Finally, streptavidin coated Donor beads (Perkin Elmer, cat. no. 6772002) were added to a final concentration of 40 μg/ml and incubated for 30 min. All incubations were performed at RT in the dark. The plate was analyzed in the EnSpire instrument and the IC50 values were calculated using GraphPad Prism 5.
For orientation: Alpha assays give light when donor and acceptor beads are brought close together.

In test [2] the target is T2, human PSMA (in house produced) (human, UniProt Q04609 44-750, limits assumed).
T2 construct: Biotinylated
T2 sequence (Q04609 44-750 limits assumed): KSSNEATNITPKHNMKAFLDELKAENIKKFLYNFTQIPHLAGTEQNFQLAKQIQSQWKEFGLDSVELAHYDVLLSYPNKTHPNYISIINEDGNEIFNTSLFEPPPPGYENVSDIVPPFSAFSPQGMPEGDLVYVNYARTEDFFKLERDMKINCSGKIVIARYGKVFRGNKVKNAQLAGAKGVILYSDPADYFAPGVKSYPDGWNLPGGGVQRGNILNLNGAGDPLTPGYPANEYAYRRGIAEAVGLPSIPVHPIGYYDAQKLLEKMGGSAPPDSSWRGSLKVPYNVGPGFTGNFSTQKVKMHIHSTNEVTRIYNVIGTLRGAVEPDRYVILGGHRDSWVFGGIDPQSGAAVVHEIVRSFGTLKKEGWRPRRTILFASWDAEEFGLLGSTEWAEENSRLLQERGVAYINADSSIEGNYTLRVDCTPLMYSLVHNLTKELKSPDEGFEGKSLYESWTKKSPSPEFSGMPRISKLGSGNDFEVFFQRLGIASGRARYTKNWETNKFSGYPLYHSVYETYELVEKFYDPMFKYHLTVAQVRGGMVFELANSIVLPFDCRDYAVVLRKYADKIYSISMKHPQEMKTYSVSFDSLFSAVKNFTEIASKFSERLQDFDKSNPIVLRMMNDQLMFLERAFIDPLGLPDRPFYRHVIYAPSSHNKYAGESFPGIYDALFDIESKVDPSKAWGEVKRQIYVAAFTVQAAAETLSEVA
The test is described as follows: ELISA, pH 6.0 and pH 7.4. In general terms: In an ELISA, binding on a coated surface is turned into a signal by an enzyme label.

Test [3] concerns the target T3, human FcRn: extracellular domain of human αFcRn in complex with human β2-microglobulin, soluble, produced in … (human, UniProt P55899 24-290; P16213 21-119).
T3 construct: Ig kappa leader cleaved upon secretion; Biotinylated for ELISA, amine coupled for Biacore; also called hFcRn; not shown: C-terminal GS-linker and FLAG tag; C-terminal GS-linker and His6 tag
The test is described as follows: ELISA, Z-ABD captured on anti-ABD, biotinylated human FcRn titrated, pH 6.0. As for the experimental part:
After washing as described above, 50 μl ImmunoPure TMB substrate (Thermo Scientific, cat. no. 34021) was added to the wells and the plates were treated according to the manufacturer's recommendations.

In test [4] the target is T1, human FcRn (Biorbyt, cat. no. orb84388). The test can be described thus: ELISA titration of biotinylated human FcRn, pH 6.0.
T1 sequence (P55899 24-297 limits assumed, chain 1 of 2): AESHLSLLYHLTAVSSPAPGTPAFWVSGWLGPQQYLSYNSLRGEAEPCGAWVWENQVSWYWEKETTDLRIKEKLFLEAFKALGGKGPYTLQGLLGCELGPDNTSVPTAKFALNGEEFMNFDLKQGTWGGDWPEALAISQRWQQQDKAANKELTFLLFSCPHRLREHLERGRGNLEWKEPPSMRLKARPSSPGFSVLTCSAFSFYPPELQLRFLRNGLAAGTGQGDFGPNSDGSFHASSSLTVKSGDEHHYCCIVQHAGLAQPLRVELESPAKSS
T1 sequence (P61769 21-119 limits assumed, chain 2 of 2, further chain): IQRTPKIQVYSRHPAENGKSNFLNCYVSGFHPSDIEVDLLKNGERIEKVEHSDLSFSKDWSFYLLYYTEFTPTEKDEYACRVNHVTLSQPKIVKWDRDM
Test [5] has the same target. The test is described as follows: ELISA titration of biotinylated human FcRn, pH 7.4.

B1: Z11948-G4S-Z11948 (designed binder)
chain: AEAKYAKEQDAAAHEIRWLPNLTFDQRVAFIHKLADDPSQSSELLSEAKKLNDSQAPKGTGGGGSPRAEAKYAKEQDAAAHEIRWLPNLTFDQRVAFIHKLADDPSQSSELLSEAKKLNDSQAPKLEHHHHHH
notes: Homodimeric construct in one chain
For orientation: IC50 means the concentration that gives 50% inhibition. Higher therefore signals weaker potency. In test [1], B1 showed an IC50 of 0.38 nM.

B2: Z11948-(G4S)3-Z11948 (designed binder)
chain: AEAKYAKEQDAAAHEIRWLPNLTFDQRVAFIHKLADDPSQSSELLSEAKKLNDSQAPKGTGGGGSGGGGSGGGGSAEAKYAKEQDAAAHEIRWLPNLTFDQRVAFIHKLADDPSQSSELLSEAKKLNDSQAPKLEHHHHHH
notes: as for B1
Take B2: the IC50 in test [1] amounted to 0.41 nM.

B3: Z07918-ABD fusion (designed binder)
chain: AQHDEALEVDAKYAKEQDAAAHEIRWLPNLTFDQRVAFIHKLADDPSQSSELLSEAKKLNDSQAPKVDYVLAEAKVLANRELDKYGVSDYYKNLINNAKTVEGVKALIDEILAALPYVPG
notes: domain: GA3; periplasmic Z-ABD fusion
Regarding B3, the binding result in test [2] is given as “no binding (tested: 2 µg/ml)”.

B4: Z07930-ABD fusion (designed binder)
chain: AQHDEALEVDAKYAKESDSAVHEIRWLPNLTFDQRVAFIHKLLDDPSQSSELLSEAKKLNDSQAPKVDYVLAEAKVLANRELDKYGVSDYYKNLINNAKTVEGVKALIDEILAALPYVPG
notes: as for B3
The Kd is the constant that tells how readily two partners part at equilibrium. High values mean a looser complex, low ones a tighter complex. As to B4, the binding result in test [2] is recorded as “no binding (tested: 2 µg/ml)”. The same molecule came in with a Kd in test [3] of 10.4 nM.

B5: Z13860-ABD fusion (designed binder)
chain: AQHDEALEVDAKYAKEISDAKHEIRWLPNLTFDQRVAFIHKLDDDPSQSSELLSEAKKLNDSQAPKVDYVLAEAKVLANRELDKYGVSDYYKNLINNAKTVEGVKALIDEILAALPYVPG
notes: as for B3
With B5, the Kd in test [4] amounted to 2.3 nM; in test [5], 8.7 nM.

B6: Z10127-ABD fusion (designed binder)
chain: AQHDEALEVDAKYAKERKDAGHEIRWLPNLTFDQRSAFIKKLEDDPSQSSELLSEAKKLNDSQAPKVDYVLAEAKVLANRELDKYGVSDYYKNLINNAKTVEGVKALIDEILAALPYVPG
notes: as for B3
Consider B6, for which the binding result in test [2] is recorded as “no binding (tested: 2 µg/ml)”. Moreover, the Kd in test [3] was determined as 21.3 nM.

B7: Z13846-ABD fusion (designed binder)
chain: AQHDEALEVDAKYAKESEIAGHEIRWLPNLTFDQRVAFIRKLRDDPSQSSELLSEAKKLNDSQAPKVDYVLAEAKVLANRELDKYGVSDYYKNLINNAKTVEGVKALIDEILAALPYVPG
notes: as for B3
Take B7: the Kd in test [4] was found to be 2.3 nM; in test [5] it was 4.3 nM.

B8: Z13866-ABD fusion (designed binder)
chain: AQHDEALEVDAKYAKEWLDAAHEIRWLPNLTFDQRVAFIHKLRDDPSQSSELLSEAKKLNDSQAPKVDYVLAEAKVLANRELDKYGVSDYYKNLINNAKTVEGVKALIDEILAALPYVPG
notes: as for B3
B8: the Kd in test [4] stood at 2 nM; in test [5] it was 2.8 nM.

B9: Z13845-ABD fusion (designed binder)
chain: AQHDEALEVDAKYAKENDDAAHEIRWLPNLTFDQRVAFIHKLRDDPSQSSELLSEAKKLNDSQAPKVDYVLAEAKVLANRELDKYGVSDYYKNLINNAKTVEGVKALIDEILAALPYVPG
notes: as for B3
Regarding B9, the Kd in test [4] turned out to be 2.6 nM; in test [5] it was 4.2 nM.

B10: Z13875-ABD fusion (designed binder)
chain: AQHDEALEVDAKYAKENAAAAHEIRWLPNLTFDQRVAFIHKLRDDPSQSSELLSEAKKLNDSQAPKVDYVLAEAKVLANRELDKYGVSDYYKNLINNAKTVEGVKALIDEILAALPYVPG
notes: as for B3
Take B10: the Kd in test [4] stood at 2 nM; in test [5], 3.4 nM.

B11: Z10129-ABD fusion (designed binder)
chain: AQHDEALEVDAKYAKEQHDAAHEIRWLPNLTYDQRVAFIRKLHDDPSQSSELLSEAKKLNDSQAPKVDYVLAEAKVLANRELDKYGVSDYYKNLINNAKTVEGVKALIDEILAALPYVPG
notes: as for B3
For the molecule B11, the binding result in test [2] is “no binding (tested: 2 µg/ml)”. In addition, the Kd in test [3] turned out to be 17.6 nM.

B12: Z10111-ABD fusion (designed binder)
chain: AQHDEALEVDAKYAKEDDTAAHEIRWLPNLTYEQRWAFIHKLYDDPSQSSELLSEAKKLNDSQAPKVDYVLAEAKVLANRELDKYGVSDYYKNLINNAKTVEGVKALIDEILAALPYVPG
notes: as for B3
Turning to B12, the binding result in test [2] is given as “no binding (tested: 2 µg/ml)”. Besides, the affinity in test [3], expressed as Kd, was 11.4 nM.

B13: Z13865-ABD fusion (designed binder)
chain: AQHDEALEVDAKYAKEHLNAAHEIRWLPNLTFDQRVAFIHKLRDDPSQSSELLSEAKKLNDSQAPKVDYVLAEAKVLANRELDKYGVSDYYKNLINNAKTVEGVKALIDEILAALPYVPG
notes: as for B3
Consider B13, for which the Kd in test [4] came to 2.5 nM; in test [5], 5.6 nM.

B14: Z07909-ABD fusion (designed binder)
chain: AQHDEALEVDAKYAKERQEAAHEIRWLPNLTFDQRVAFIVKLLDDPSQSSELLSEAKKLNDSQAPKVDYVLAEAKVLANRELDKYGVSDYYKNLINNAKTVEGVKALIDEILAALPYVPG
notes: as for B3
For the molecule B14, the binding result in test [2] is on record as “no binding (tested: 2 µg/ml)”. Besides, the Kd in test [3] is 24.5 nM.

B15: Z10140-ABD fusion (designed binder)
chain: AQHDEALEVDAKYAKERSAAAHEIRWLPNLTFDQRVAFILKLTDDPSQSSELLSEAKKLNDSQAPKVDYVLAEAKVLANRELDKYGVSDYYKNLINNAKTVEGVKALIDEILAALPYVPG
notes: as for B3
Take B15: the binding result in test [2] was “no binding (tested: 2 µg/ml)”. The molecule further registered a Kd in test [3] of 8.8 nM.

B16: Z07960-ABD fusion (designed binder)
chain: AQHDEALEVDAKYAKEFESAAHEIRWLPNLTYDQRVAFIHKLSDDPSQSSELLSEAKKLNDSQAPKVDYVLAEAKVLANRELDKYGVSDYYKNLINNAKTVEGVKALIDEILAALPYVPG
notes: as for B3
As to B16, the binding result in test [2] is reported as “no binding (tested: 2 µg/ml)”. In test [3], binding was characterised by a dissociation constant (Kd) of 6 nM.

B17: His6-tagged Z10109 (designed binder)
chain: MGSSHHHHHHLQVDAKYAKEANTAAHEIRWLPNLTFDQRVAFIRKLWDDPSQSSELLSEAKKLNDSQAPKVD
The molecule B17 showed an IC50 in test [1] of 57 nM.

B18: His6-tagged Z13616 (designed binder)
chain: MGSSHHHHHHLQVDAKYAKEWQQAAHEIRWLPNLTFDQRVAFIHKLRDDPSQSSELLSEAKKLNDSQAPKVD
B18 registered an IC50 in test [1] of 7.4 nM.

B19: His6-tagged Z07909 (designed binder)
chain: MGSSHHHHHHLQVDAKYAKERQEAAHEIRWLPNLTFDQRVAFIVKLLDDPSQSSELLSEAKKLNDSQAPKVD
Consider B19, for which, in test [1], the IC50 amounted to 46 nM.

B20: His6-tagged Z10111 (designed binder)
chain: MGSSHHHHHHLQVDAKYAKEDDTAAHEIRWLPNLTYEQRWAFIHKLYDDPSQSSELLSEAKKLNDSQAPKVD
For B20, the IC50 in test [1] was found to be 46 nM.

B21: His6-tagged Z13583 (designed binder)
chain: MGSSHHHHHHLQVDAKYAKELEKAGHEIRWLPNLTFDQRVAFIHKLRDDPSQSSELLSEAKKLNDSQAPKVD
Turning to B21, the IC50 in test [1] amounted to 2.7 nM.

B22: His6-tagged Z13674 (designed binder)
chain: MGSSHHHHHHLQVDAKYAKEIEDAGHEIRWLPNLTFDQRVAFIHKLRDDPSQSSELLSEAKKLNDSQAPKVD
Consider B22, for which the IC50 in test [1] was found to be 2.5 nM.

B23: His6-tagged Z13675 (designed binder)
chain: MGSSHHHHHHLQVDAKYAKENQAAAHEIRWLPNLTFDQRVAFIHKLRDDPSQSSELLSEAKKLNDSQAPKVD
In turn, B23 displayed an IC50 in test [1] of 8.2 nM.

B24: His6-tagged Z13669 (designed binder)
chain: MGSSHHHHHHLQVDAKYAKELASAGHEIRWLPNLTFDQRVAFIHKLRDDPSQSSELLSEAKKLNDSQAPKVD
Consider B24, for which the IC50 in test [1] is 5.2 nM.

B25: His6-tagged Z13993 (designed binder)
chain: MGSSHHHHHHLQVDAKYAKEAGRAAHEIRWLPNLTWDQRVAFIWKLRDDPSQSSELLSEAKKLNDSQAPKVD
The molecule B25 had an IC50 in test [1] of 130 nM.

B26: His6-tagged Z13578 (designed binder)
chain: MGSSHHHHHHLQVDAKYAKEWTDAAHEIRWLPNLTFDQRVAFIHKLRDDPSQSSELLSEAKKLNDSQAPKVD
B26 had an IC50 in test [1] of 12 nM.

B27: His6-tagged Z13592 (designed binder)
chain: MGSSHHHHHHLQVDAKYAKEVDIAAHEIRWLPNLTFDQRVAFIHKLRDDPSQSSELLSEAKKLNDSQAPKVD
In test [1], B27 yielded an IC50 of 6.4 nM.

B28: His6-tagged Z13654 (designed binder)
chain: MGSSHHHHHHLQVDAKYAKELEAAKHEIRWLPNLTFDQRVAFIHKLDDDPSQSSELLSEAKKLNDSQAPKVD
With B28, the IC50 in test [1] was found to be 3.5 nM.

Values taken from US20160031967A1 (Affibody, published 2016).
